Results: ChEMBL document CHEMBL4888484, “Replenishing the malaria drug discovery pipeline: Screening and hit evaluation of the MMV Hit Generation Library 1 (HGL1) against asexual blood stage Plasmodium falciparum ,using a nano luciferase reporter read-out” (2022)
The campaign covered roughly 150,000 compounds. About 540 (0.36%) showed an effect of 50% or more. The list shows a part of the results.

What follows are molecules tested on Plasmodium falciparum (assay: Primary screen in NF54 nanoGlo assay, in single point, at 2uM, 72h; a lower Z score goes with more inhibition). Settings: timepoint 72 hour.
Assay type: functional, Erythrocyte

Structure (SMILES)	% Inhibition [%]	Z score
Cc1cc(Oc2nc(N3CCCCC3)nc3c2CN(S(=O)(=O)c2ccccc2)CC3)ccc1F	-14	1.93
NC(=O)CC[C@H]1CCCN(C(=O)N2CCc3ccccc32)C1	-2	0.2
CC[C@H](C)NS(=O)(=O)c1cc(-c2cc(C)no2)sc1C	8	-1.52
COCc1nc2ccccc2c(C)c1C(=O)OCc1csc(CC(=O)Nc2ccccc2C)n1	-10	1.48
CC(Cc1cccc(F)c1)C(=O)N1CCC2(CCOCC2)C1C (centres undefined)	-6	0.92
CCCCN(CC)C(=O)c1c(Cl)ccc(S(=O)(=O)CCOC)c1Cl	-7	1.07
CS(=O)(=O)N1CCC(OC2CCN(C(=O)Nc3ccc(F)cc3F)CC2)CC1	-10	1.24
O=S(=O)(c1cccnc1)N1CC[C@H](Oc2cnc3ccccc3n2)C1	10	-1.88
CC(C)CCC1CCCN1CC1CCOC1 (centres undefined)	-6	0.92
O=C(NCc1nccnc1-c1ccco1)Nc1nc(-c2ccccn2)cs1	1	-0.15
NC(=O)c1ccc(NC(=O)c2ccc(Nc3ncccn3)cc2)cc1	-3	0.34
O=C(NCC[C@H](O)c1cc2ccccc2o1)NC1CCOCC1	-3	0.31
Cc1cc(=O)c(C(=O)N(Cc2cccnc2)C2CCN(C)CC2)c[nH]1	-15	2.62
O=C(NCCc1ccco1)c1ccc(-n2nnc3cccnc32)cc1	-21	2.46
CC(C)(C)N1CC[C@H](NS(=O)(=O)c2cn[nH]c2)C1	-4	0.73
CCn1cc(S(=O)(=O)N2C[C@@H](C(=O)NC)[C@H](c3nc(C)no3)C2)cn1	0	-0.04
CC(C)(C)OC(=O)C(=O)N1CCC[C@@H]1COC(=O)c1ccccc1	-11	1.51
COc1ccc(-c2c(C)nn3c(N4CCc5ccccc54)cc(C)nc23)cc1OC	-3	0.36
COc1cccc(CC(=O)Nc2cnn(-c3ncncc3N(C)C)c2)c1	7	-0.77
CCn1nc(C(=O)NCc2ccccc2F)cc1-c1ccc(Cl)s1	-6	0.62
Cc1cnc(CNC(=O)c2cc(C)nc(C)n2)cn1	-12	2.27

Structure (SMILES)	% Inhibition [%]	Z score
COCc1nc(C)nc(N2CCN(C(=O)c3ccco3)CC2)c1Cc1ccccc1F	-22	3.18
C[C@H]1CC(=O)NCCN1C(=O)Cc1ccc(Cl)c(Cl)c1	-4	0.61
COc1ccc(CN2CCNC(=O)C2(C)C)cc1OC[C@@H](O)CN1CCCCCCC1	-11	2.11
O=C(O)c1ccc(-c2ccc(-c3nc(-c4ccccc4)c(-c4ccccc4)[nH]3)o2)cc1	-17	1.98
O[C@H](COc1ccc2c(c1)CCC2)CN1CCCC1	-3	0.57
CO[C@H]1CCCN(C(=O)Nc2ccc3sc(C(=O)N(C)C)cc3c2)C1	-9	1.5
COc1ccc(S(=O)(=O)N2CC(N3C(=O)COC3=O)C2)cc1C	-8	0.96
O=C(c1cc(F)cc(F)c1)N1CCN(Cc2cccc(-c3noc(-c4cccc(C(F)(F)F)c4)n3)c2)CC1	0	0.01
N#CCNC(=O)c1ccc(C#N)c(Cl)c1	6	-1.18
Cc1ccc2c(=O)c(C(=O)N3CCCC3)cn(CC(=O)NC3CCCCC3)c2n1	-10	1.38
Cc1cccc(NC(=O)CC(=O)N2Cc3nc(C)n(C)c(=O)c3C2)c1C	-1	0.26
Cc1ncsc1CCC(=O)N1CCc2onc(C(=O)N(C)C)c2C1	-6	0.82
C[C@@H](CN(C)c1cncc(-c2cccs2)n1)C(=O)O	4	-0.56
Cc1cc(CNC(=O)NC2CCCCCCC2)no1	-4	0.43
COC[C@H]1CN(S(=O)(=O)c2cccc(C)c2)CC12CCOCC2	-9	1.2
CCN(CC)C(=O)c1cn([C@H]2CCCN(Cc3cccc4cccnc34)C2)nn1	-9	1.1
Cc1nnc2n1CCC[C@@H]2NC(=O)N(C)CCOCC1CC1	-3	0.38
O=C(NCc1cccnc1)[C@@H]1COC2(CCN(C(=O)c3ccc(F)cc3F)CC2)N1C(=O)c1ccccc1	-3	0.48
CCc1cnc(Cn2nc(-c3ccccc3)cc(C(F)(F)F)c2=O)o1	-6	0.55
c1cc2cn[nH]c2cc1NCC1CCCCC1	-3	0.47
Cc1ccn(Cc2cc(-c3ccc(Cl)cc3)no2)c(=O)c1C#N	-2	0.27
